Data published in PubChem BioAssay AID588342 (National Center for Advancing Translational Sciences (NCATS), 2011).
Where “and” joins values, the source holds several entries; their conditions need not be identical. Identical values can stand only once. The campaign covered roughly 360,000 compounds. About 25,000 (6.9%) were called active. Inconclusive results, whose numbers are uncertain, are shown with a selection of clear calls. Calls come from the whole dose curve; as a rule, active = well fitted inhibition curve with a large enough effect; inconclusive = small, poorly fitted or top-dose-only effect; inactive = flat fitted curve, though single readings scatter. A potency beside an inconclusive call is a rough fit, not a confirmed value.

target: Luciferin 4-monooxygenase (Photinus pyralis) (UniProt P08659); test: qHTS profiling assay for firefly luciferase inhibitor/activator using purifed enzyme and Km concentrations of substrates (counterscreen for miR-21 project); conditions: purified FLuc, luminescence inhibition; series mostly up to 57.5 µM; activity change, negative = inhibition: at the top concentration; note: nearly all actives have a fitted effect of over 55% in size;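 for activity change, negative = inhibition: plate controls were vehicle for no effect and reference inhibitor for full effect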
Chain of UniProt P08659 (P08659 whole entry, looked up): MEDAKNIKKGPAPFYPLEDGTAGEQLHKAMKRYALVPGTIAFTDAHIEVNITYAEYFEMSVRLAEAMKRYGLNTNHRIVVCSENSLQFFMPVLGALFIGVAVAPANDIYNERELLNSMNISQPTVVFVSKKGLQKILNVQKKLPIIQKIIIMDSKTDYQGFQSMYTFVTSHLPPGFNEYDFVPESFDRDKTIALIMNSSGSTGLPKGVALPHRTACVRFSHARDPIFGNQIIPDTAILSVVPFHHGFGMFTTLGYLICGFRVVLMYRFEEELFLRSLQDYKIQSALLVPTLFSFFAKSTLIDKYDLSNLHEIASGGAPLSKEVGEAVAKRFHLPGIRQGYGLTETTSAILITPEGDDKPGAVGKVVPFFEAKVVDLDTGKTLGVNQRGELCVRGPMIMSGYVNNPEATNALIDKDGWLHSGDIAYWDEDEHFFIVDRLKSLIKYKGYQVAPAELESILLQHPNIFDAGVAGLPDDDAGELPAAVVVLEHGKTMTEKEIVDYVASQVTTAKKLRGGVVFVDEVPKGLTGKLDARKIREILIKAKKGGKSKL
Outline: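 Purified P. pyralis luciferase, 10 nM final, with Km-level 10 uM D-luciferin and 10 uM ATP in 50 mM Tris acetate pH 7.5, 10 mM Mg acetate, 0.01% Tween-20, 0.05% BSA; 6-point qHTS titration about 60 µM downward; luminescence read.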
Potency is the fitted concentration of half-maximal effect; tags give direction and shape of the fitted curve.

SMILES | Potency | activity change, negative = inhibition
O=C(Nc1cccnc1)c1cccc(NC(=O)c2ccco2)c1 | inconclusive: 15.1 µM [inhibitor, partial curve] | –
O=C(NCCC1=CCCCC1)C1CCN(C(=O)N2CCOc3ccc(Cl)cc32)CC1 | – | inactive: 2.3%
CCc1ccc(-c2nc(CS(=O)CC(=O)NCCc3ccccc3)c(C)o2)cc1 (centres undefined) | inconclusive: 15.1 µM [inhibitor, partial curve] | –
Cc1nc2cc(NC(=O)Nc3nccs3)ccc2n1C | active: 4.26 µM | –
Cc1sc2ncnc(NCc3cccs3)c2c1C | – | inactive: 2.16%
COc1ccc(NC(=O)c2cccnc2Nc2ccc(OC)cc2)cc1 | inconclusive: 23.9 µM [inhibitor, single point] | –
Cc1nc(-c2ccccc2)sc1C(=O)/C=C/c1ccccc1 | inconclusive: 30.1 µM [inhibitor, single point] | –
COc1ccc(OC)c2sc(N3CCCCC3)nc12 | active: 19 µM | –
COc1ccc2c(c1)CC/C(=C\c1ccc(OC)c(Cn3cccn3)c1)C2=O | active: 13.5 µM | –
Cc1ccc(C(=O)Nc2cccc(-c3ccc(N4CCOCC4)nn3)c2)cc1[N+](=O)[O-] | inconclusive: 0.757 µM [inhibitor, full curve, poor fit] | –
CC(C)C(=O)Nc1ccc(-c2nnc(-c3ccccc3)o2)cc1 | active: 2.39 µM | –
CCc1ccc(/C=C/C(=O)c2c(C)cc(C)[nH]c2=O)cc1 | inconclusive: 21.3 µM [inhibitor, partial curve, poor fit] | –
O=C(COc1ccc(S(=O)(=O)NCc2ccccc2)cc1Cl)NCc1ccncc1 | – | inactive: -2%
COCCSc1nnc(NC(=O)C2CCN(C(=O)c3ccco3)CC2)s1 | – | inactive: 0.76%
CCC(C)(C)NC(=O)C(c1ccc(OC)cc1)N(CCOC)C(=O)CCC(=O)Nc1nccs1 (centres undefined) | inconclusive: 0.0076 µM [inhibitor, partial curve, poor fit] | –
N=C1S/C(=C\c2ccco2)C(=O)N1c1ccc2c(c1)OCO2 | inconclusive: 13.5 µM [inhibitor, partial curve] | –
CCOc1ccc(NC(=O)C2CSC(c3ccncc3)=N2)cc1 (centres undefined) | inconclusive: 21.3 µM [inhibitor, single point] | –
CSc1ccccc1NC(=O)c1cc(CC(C)C)on1 | inconclusive: 8.49 µM [inhibitor, partial curve] | –
O=C(Nc1ccc(OC(F)(F)F)cc1)Nc1cccc([N+](=O)[O-])c1 | active: 23.9 µM | –
COc1ccc(CNC(=O)c2ccc(-c3nc(CSc4ccc(C)cc4)c(C)o3)cc2)c(OC)c1 | – | inactive: -6.02%
O=C(Nc1ccc2c(c1)OCCO2)c1cc2ccccc2o1 | active: 1.07 µM | –
CCNC(=S)N/N=C/c1cccc(C)c1 | inconclusive: 21.3 µM [inhibitor, partial curve] | –
CC1N(C(=O)N2CCOCC2)CCN1S(=O)(=O)c1ccc(Cl)cc1 (centres undefined) | – | inactive: -0.742%
Fc1cccc(-c2csc(-c3ccno3)n2)c1 | inconclusive: 23.9 µM [inhibitor, single point] | –
Cn1c(Nc2ccccc2)nc2ccccc21 | inconclusive: 19 µM [inhibitor, single point] | –

SMILES | Potency | activity change, negative = inhibition
Nc1c(C(=O)c2ccccc2)oc2ccc([N+](=O)[O-])cc12 | inconclusive: 5.36 µM [inhibitor, full curve] | –
CCOc1ccc(N(CC(=O)Nc2ccccc2Cl)S(C)(=O)=O)cc1 | inconclusive: 21.3 µM [inhibitor, partial curve, poor fit] | –
CC(O)Cc1nsc(NC(=O)c2cccs2)n1 (centres undefined) | inconclusive: 12 µM [inhibitor, partial curve, poor fit] | –
Cc1cc(NC(=O)c2cc(C(C)C)on2)nn1Cc1ccc(Cl)cc1 | inconclusive: 26.9 µM [inhibitor, partial curve, poor fit] | –
CCc1ccc(C(=O)NCC2COc3ccccc3O2)o1 (centres undefined) | inconclusive: 26.9 µM [inhibitor, single point] | –
O=C(O)c1ccc(N/N=C/c2cccc(F)c2)cc1 | active: 2.39 µM | –
Cc1cc(-c2cc(-c3ccccc3)on2)nc(NC2CCCC2)n1 | inconclusive: 23.9 µM [inhibitor, single point] | –
CCCOc1ncnc2c1[nH]c1ccccc12 | active: 16.9 µM | –
O=C(NC1=NCCS1)c1ccc([N+](=O)[O-])cc1Cl | inconclusive: 16.9 µM [inhibitor, partial curve] | –
CCN(CC)CCOC(=O)c1ccc(NC(=O)CNC(=O)C2CCCCC2)cc1 | – | inactive: -3.29%
CN(Cc1nccn1C)C(=O)C1CCC(=O)N(Cc2cccc(C(F)(F)F)c2)C1 (centres undefined) | – | inactive: -0.378%
Cc1cccc(NC(=O)CCSc2ccccn2)c1 | inconclusive: 21.3 µM [inhibitor, single point] | –
CCOC(=O)c1nc(Nc2ccc(C(=O)OC(C)C)cc2)c2ccccc2n1 | – | inactive: 2.55%
Cn1ncc2c(Nc3cccc(C(=O)O)c3)ncnc21 | inconclusive: 21.3 µM [inhibitor, partial curve, poor fit] | –
CCOC(=O)c1cnc2c(ccc3ccccc32)c1NCCO | inconclusive: 19 µM [inhibitor, partial curve] | –
NC(=O)COc1ccc2cc(-c3ccccc3)c(=O)oc2c1 | inconclusive: 15.1 µM [inhibitor, partial curve, poor fit] | –
Fc1ccc(-n2ncc3c(Nc4ccc5c(c4)OCCO5)ncnc32)cc1 | active: 16.9 µM | –
Cc1ccc(Nc2sc(C(=O)c3ccccc3)c(N)c2S(=O)(=O)c2ccccc2)cc1Cl | – | inactive: -1.54%
COc1ccc2oc(C(=O)NNC(=O)c3ccc(F)cc3)c(C)c2c1 | inconclusive: 16.9 µM [inhibitor, partial curve] | –
CCOC(=O)c1c(C)[nH]c(C)c1C(=O)COC(=O)c1cccnc1SC | – | inactive: 2.28%
CC(C)(C)C(=O)/C=C/Nc1ccccc1O | inconclusive: 4.78 µM [inhibitor, partial curve, poor fit] | –
CCc1ccc(CNC(=O)Cn2nc(-c3ccc(C)cc3)ccc2=O)cc1 | inconclusive: 37.9 µM [inhibitor, single point] and inconclusive: 19 µM [inhibitor, partial curve] | –
Cc1ccc(C2=C/C(=C/c3cccs3)C(=O)O2)cc1 | active: 0.379 µM | –
Cc1ccc(-n2c(C)nc3c(cnn3-c3ccc(C)c(C)c3)c2=O)cc1C | inconclusive: 26.9 µM [inhibitor, single point] | –
CC(=O)Nc1ccc(NC(=O)Nc2ccc(C)c(C)c2)cc1 | – | inactive: -1.94%

SMILES | Potency | activity change, negative = inhibition
COc1ccc(-c2csc(-c3ccc(O)cc3)n2)cc1 | active: 9.53 µM | –
CN1C(=O)/C(=C\c2ccco2)N=C1c1ccc(Cl)cc1Cl | active: 16.9 µM | –
Cn1nnc2c(N3CCN(c4ccc(F)cc4)CC3)ncnc21 | – | inactive: 2.77%
Cc1cc(C)n2c(Br)c(CSc3nc4ccccc4o3)nc2n1 | inconclusive: 37.9 µM [inhibitor, single point] | –
Cc1nc(NC(=O)/C=C/c2ccccc2)sc1C(=O)NCCO | inconclusive: 21.3 µM [inhibitor, single point] | –
COc1ccc(Cl)cc1NC(=O)Cn1ccn(-c2cc(C)cc(C)c2)c(=O)c1=O | – | inactive: 3.95%
O=C(O)c1ccccc1SCc1cn2cc(Cl)ccc2n1 | active: 10.7 µM | –
COc1ccc(C2=CSC3=C(C(=O)c4cccc(S(=O)(=O)N(C)C)c4)CCN23)cc1 | inconclusive: 37.9 µM [inhibitor, partial curve, poor fit] | –
CCOc1ccc(NC(=O)CSC(N)=O)cc1 | inconclusive: 37.9 µM [inhibitor, partial curve, poor fit] | –
COC(=O)c1ccc(NC(=O)c2ccc3c(c2)OCO3)cc1 | inconclusive: 3.01 µM [inhibitor, full curve] | –
N#Cc1ccsc1NC(=O)COc1ccc(-c2nnco2)cc1 | active: 15.1 µM | –
O=C(CNC(=O)N1CC(=O)Nc2ccccc21)Nc1cc(Cl)ccc1Cl | – | inactive: -0.432%
Cc1cc(Br)ccc1SCC(=O)OCC(=O)NCc1ccc2c(c1)OCO2 | – | inactive: 2.23%
CCn1c(SCCC(C)C)nnc1-c1c[nH]c2ccccc12 | inconclusive: 37.9 µM [inhibitor, single point] | –
CC(=O)Oc1ccc(-c2cccc(C(=O)NCCO)c2)cc1 | inconclusive: 19 µM [inhibitor, single point] | –
COc1ccc2cc3c(N)nn(C(=O)c4ccccc4Cl)c3nc2c1 | inconclusive: 19 µM [inhibitor, partial curve, poor fit] | –
O=C(Nc1sc2c(c1C(=O)O)CCCC2)C(=O)N1CCOCC1 | inconclusive: 21.3 µM [inhibitor, single point] | –
Cc1nn(-c2ccccc2)c(Cl)c1/C=N/NC(N)=O | inconclusive: 19 µM [inhibitor, partial curve] | –
COc1cc(C(=O)Nc2ccc3ccccc3c2)cc(OC)c1OC | active: 19 µM | –
CCCc1ccc(OCC(=O)NNC(=O)c2cccnc2)cc1 | inconclusive: 26.9 µM [inhibitor, partial curve, poor fit] | –
Cc1ccc2nc3sc(C(=O)N4CCCc5ccccc54)c(N)c3cc2c1 | inconclusive: 6.01 µM [inhibitor, partial curve, poor fit] | –
Cc1cccc(CC(C)NC(=O)CCc2nnc(-c3ccccc3)o2)n1 (centres undefined) | – | inactive: -8.42%
COc1ccc2c(c1)[nH]c1c(=O)n(CC3CCCO3)cnc12 (centres undefined) | inconclusive: 23.9 µM [inhibitor, single point] | –
Cc1ccc(CNC(=O)C2CCC(=O)N(CCc3ccccc3)C2)s1 (centres undefined) | inconclusive: 37.9 µM [inhibitor, partial curve, poor fit] | –
